Laboratory results taken from PMC5100981 (Antiviral research, 2016).

Test system: Enterovirus D68 (US/KY/14-18953 strain)
Experiment: CPE inhibition assay
Type: cell-based
Conditions: for EC50: Enterovirus D, EVD68, RD, read-out: EC50, 50% effective concentration
[1] = Enterovirus D68/US/KY/14-18593, RD cells
[2] = RD cells (Table 3 cell line comparison)

SMILES: CC(C)S(=O)(=O)n1c(N)nc2ccc(/C(=N/O)c3ccccc3)cc21 [Enviroxime, enviroxime]
- SI, selectivity index (CC50 / EC50) [1]: 306
- EC50: 0.27 ± 0.23 µM
- SI, selectivity index (CC50 / EC50) [2]: 240

SMILES: CCOC(=O)c1ccc(OCCC2CCN(c3ccc(C)nn3)CC2)cc1 [Pirodavir, pirodavir]
- SI, selectivity index (CC50 / EC50) [1]: 1.5
- EC50: 8.1 ± 3.9 µM
- SI, selectivity index (CC50 / EC50) [2]: 3.9
